# Laboratory results as given in the supplement of paper PMC4723716.
# ± gives the uncertainty stated by the source. In all, about 9,900 compounds were measured (“viability index relative to DMSO control”: median about 1, lowest 2% from about 0.85 on). This is one part of the list.
# System: Plasmodium falciparum NF54 stage V gametocytes
# Assay: viability index relative to DMSO control (fraction); higher = less gametocyte killing
# Settings: 2.5 µM, library set: Broad Institute DOS, incubation time: 72 h
# Procedure, shortened: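 In 1,536-well plates, 10 µl of serum-free medium holding P. falciparum NF54 stage V gametocytes (0.75% gametocytemia, 1.25% hematocrit) received compound at 2.5 µM for 72 hr at 37°C in low oxygen. After one to two hours with 3 µl of 2.5 µM MitoTracker Red CMXRos containing 0.13% saponin, red particles of 20–70 µm2 were counted in a single field per well. Viability index is reported as the particle count over the plate mean of wells treated with solvent only.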
row,SMILES,viability index
1,O=C(C[C@@H]1CC[C@H]2[C@@H](COC[C@H](O)CN2Cc2ccc(Oc3ccccc3)cc2)O1)N1CCN(c2ccccc2)CC1,1.06 ± 0.024
2,O=C([C@@H]1[C@@H](CO)[C@@H]2Cn3c(cccc3=O)[C@H]1N2Cc1cocn1)N1CCCCC1,0.937 ± 0.041
3,N#Cc1ccc(-c2ccc3c(c2)[C@@H]2[C@@H](CCN2C(=O)C2CCCCC2)[C@@H](CO)N3)cc1,1.1 ± 0.024
4,CO[C@@H](CN(C)Cc1ccc2c(c1)OCO2)[C@@H](C)CN(C(=O)Nc1ccc(F)cc1)[C@@H](C)CO,1.03 ± 0.019
5,COc1ccc2c3c([C@@H](CO)N(C[C@]33CN(C3)C(=O)c3cccc(F)c3)C(=O)c3cccc(F)c3)n(C)c2c1,0.848 ± 0.02
6,CCN(C[C@H]1[C@H](c2ccccc2)[C@@H](CO)N1S(C)(=O)=O)C(=O)C1CCCC1,1.07 ± 0.035
7,CN1C(=O)c2cc(NC(=O)NCc3ccccc3)ccc2OC[C@@H]2O[C@H](CC(=O)NCC3CCCCC3)CC[C@@H]21,1.02 ± 0.039
8,Cc1ccc(S(=O)(=O)N(C)C[C@@H]2OCCCC[C@@H](C)Oc3ccc(NC(=O)c4ccncc4)cc3C(=O)N([C@H](C)CO)C[C@@H]2C)cc1,1.12 ± 0.033
9,CN1C(=O)c2cc(NC(=O)Cc3cccs3)ccc2OC[C@@H]2O[C@@H](CC(=O)N[C@@H]3CCN(Cc4ccccc4)C3)CC[C@H]21,1.12 ± 0.15
10,COc1ccc2c3c([C@H](CO)N(CC4CC4)C[C@]33CN(Cc4ccc(F)cc4)C3)n(C)c2c1,0.978 ± 0.043
11,C[C@@H]1CN([C@@H](C)CO)C(=O)c2ccccc2-c2ccccc2CO[C@H]1CN(C)S(=O)(=O)c1cccc(C#N)c1,1.01 ± 0.11
12,CNC[C@H]1OCCCC[C@@H](C)Oc2ccc(NC(=O)Nc3ccc(OC)cc3)cc2C(=O)N([C@H](C)CO)C[C@H]1C,1.05 ± 0.012
13,CC(C)[C@H]1COCc2cnnn2CCC[C@@H](C)C(=O)N1,1.092 ± 0.0059
14,O=C(NC1CCCC1)N1CC(=O)N2[C@H](CO)[C@H](c3ccc(C4=CCCCC4)cc3)[C@@H]2C1,0.986 ± 0.045
15,O=C(NCC[C@H]1CC[C@H](NC(=O)C2CCOCC2)[C@@H](CO)O1)c1cc(Cl)cc(Cl)c1,0.973 ± 0.12
16,C/C=C/c1ccc([C@H]2[C@@H](CO)N[C@@H]2CN(Cc2cccnc2)C(=O)C2CC2)cc1,1 ± 0.037
17,Cc1ccc(OC(=O)N(C)C[C@H]2OCc3ccccc3-c3ccccc3C(=O)N([C@@H](C)CO)C[C@H]2C)cc1,0.92 ± 0.1
18,CC(C)(C)S(=O)N1Cc2cc(C(=O)NCc3ccc4c(c3)OCO4)nc(-c3cccc(-c4cc5ccccc5o4)c3)c2[C@H]1CCO (stereo partly specified),0.656 ± 0.04
19,Cn1cnc(S(=O)(=O)N2[C@@H]3CNC[C@H]2[C@H]3c2ccc(/C=C/c3ccccc3)cc2)c1,1.05 ± 0.014
20,O=C(c1ccc2c(c1)OCO2)N1C[C@H]2[C@@H](c3ccccc31)[C@@H](CO)N2Cc1cccnc1,1.06 ± 0.03
21,Cc1ccccc1S(=O)(=O)N1C[C@@H]2N[C@H](C1)[C@@H]2c1ccc(-c2cccc(C#N)c2)cc1,0.903 ± 0.018
22,CCS(=O)(=O)N1C[C@@]2(C1)CN([C@H](CO)c1c2c2ccc(OC)cc2n1C)C(=O)c1ccc(F)cc1,1.02 ± 0.03
23,COc1cccc(NC(=O)N2CC(=O)N3[C@H](CO)[C@H](c4ccc(C5=CCCCC5)cc4)[C@@H]3C2)c1,1.06 ± 0.052

row,SMILES,viability index
1,COCC(=O)N1[C@@H]2c3ccc(/C=C/c4ccccc4)c(=O)n3C[C@H]1[C@H](CO)[C@H]2C(=O)N1CCOCC1,1.1 ± 0.028
2,C[C@@H]1CCc2cnnn2COC[C@@H](c2ccccc2)NC1=O,1.058 ± 0.0089
3,CCCNC(=O)N1C[C@@]2(C1)CN([C@H](CO)c1[nH]c3cc(OC)ccc3c21)C(=O)Nc1ccc(F)cc1,0.951 ± 0.052
4,CCc1csc(N2[C@H](CO)[C@H](c3ccccc3)[C@@H]2CNC)n1,0.372 ± 0.18
5,CC(=O)N1[C@H](CO)[C@H](c2ccccc2)[C@@H]1CN(C(=O)c1ccccc1F)C(C)C,1.06 ± 0.06
6,N#Cc1ccc(-c2ccc([C@@H]3[C@@H]4CN(S(=O)(=O)Cc5ccccc5)C[C@H]3N4)cc2)cc1,0.976 ± 0.037
7,CCCC#Cc1cnc2c(c1)C(=O)N([C@H](C)CO)C[C@H](C)[C@@H](CN(C)C(=O)Nc1cc(F)ccc1F)O2,0.995 ± 0.089
8,C[C@@H]1CN([C@H](C)CO)C(=O)Cc2cc(NC(=O)Cn3cnnn3)ccc2O[C@H]1CN(C)S(=O)(=O)c1ccc(Cl)cc1,1 ± 0.17
9,COc1ccc(-c2ccc([C@H]3[C@@H]4CN(S(=O)(=O)c5ccccc5C)C[C@H]3N4)cc2)cc1,0.916 ± 0.068
10,O=C1C[C@@H](c2ccccc2)C(=O)N[C@H](c2ccc(F)cc2)C/C=C\CCN1,1.083 ± 0.01
11,C/C=C/c1ccccc1[C@H]1[C@@H](CO)N(C(=O)CN2CCOCC2)[C@H]1C#N,1.07 ± 0.12
12,C[C@@H]1CN([C@H](C)CO)C(=O)CCCn2nncc2CO[C@H]1CN(C)S(=O)(=O)c1ccc2c(c1)OCCCO2,1.08 ± 0.061
13,O=S(=O)(c1cccc(F)c1)N1CC[C@H]2[C@H](CO)Nc3ccc(Br)cc3[C@H]21,1.11 ± 0.032
14,NCC[C@H]1CC[C@H](NC(=O)Cc2ccncc2)[C@@H](CO)O1,1.12 ± 0.035
15,CCS(=O)(=O)Nc1ccc2c(c1)C(=O)N(C)[C@H]1CC[C@@H](CC(=O)N[C@@H]3CCN(Cc4ccccc4)C3)O[C@@H]1CO2,1.15 ± 0.088
16,COc1ccccc1-c1ccccc1[C@@H]1[C@H](C#N)N(C(=O)CN(C)C)[C@H]1CO,1.16 ± 0.051
17,CO[C@H]1CN(C)C(=O)c2cc(NC(=O)CC(F)(F)F)ccc2OC[C@@H](C)N(CC2CC2)C[C@H]1C,0.999 ± 0.05
18,C[C@H](NC(=O)[C@@H]1[C@@H](CO)[C@@H]2Cn3c(ccc(-c4ccccc4F)c3=O)[C@H]1N2)c1ccccc1,1.11 ± 0.017
19,CO[C@H]1CC[C@@H]2CCOc3ccc(C#N)cc3C(=O)N(C)[C@@H](C)C(=O)N(C)C[C@H]1O2,1 ± 0.018
20,CCS(=O)(=O)N(C)C[C@H]1[C@@H](c2ccccc2)[C@@H](CO)N1C(=O)CN(C)C,1.019 ± 0.0043
21,N#C[C@H]1[C@H](c2ccccc2)[C@H](CO)N1C(=O)c1cc(Cl)cc(Cl)c1,1.03 ± 0.059
22,COc1ccc2c3c([C@H](CO)N(C[C@]33CN(Cc4nccs4)C3)C(=O)CN(C)C)n(C)c2c1,1.03 ± 0.015
23,CC(C)NC(=O)NCC[C@H]1CC[C@@H](NS(=O)(=O)c2ccc(Oc3ccccc3)cc2)[C@@H](CO)O1,1.07 ± 0.011
